B1: Glutamate receptor ionotropic, NMDA 2B (Homo sapiens), Q13224 (parent)
chain: MKPRAECCSPKFWLVLAVLAVSGSRARSQKSPPSIGIAVILVGTSDEVAIKDAHEKDDFHHLSVVPRVELVAMNETDPKSIITRICDLMSDRKIQGVVFADDTDQEAIAQILDFISAQTLTPILGIHGGSSMIMADKDESSMFFQFGPSIEQQASVMLNIMEEYDWYIFSIVTTYFPGYQDFVNKIRSTIENSFVGWELEEVLLLDMSLDDGDSKIQNQLKKLQSPIILLYCTKEEATYIFEVANSVGLTGYGYTWIVPSLVAGDTDTVPAEFPTGLISVSYDEWDYGLPARVRDGIAIITTAASDMLSEHSFIPEPKSSCYNTHEKRIYQSNMLNRYLINVTFEGRNLSFSEDGYQMHPKLVIILLNKERKWERVGKWKDKSLQMKYYVWPRMCPETEEQEDDHLSIVTLEEAPFVIVESVDPLSGTCMRNTVPCQKRIVTENKTDEEPGYIKKCCKGFCIDILKKISKSVKFTYDLYLVTNGKHGKKINGTWNGMIGEVVMKRAYMAVGSLTINEERSEVVDFSVPFIETGISVMVSRSNGTVSPSAFLEPFSADVWVMMFVMLLIVSAVAVFVFEYFSPVGYNRCLADGREPGGPSFTIGKAIWLLWGLVFNNSVPVQNPKGTTSKIMVSVWAFFAVIFLASYTANLAAFMIQEEYVDQVSGLSDKKFQRPNDFSPPFRFGTVPNGSTERNIRNNYAEMHAYMGKFNQRGVDDALLSLKTGKLDAFIYDAAVLNYMAGRDEGCKLVTIGSGKVFASTGYGIAIQKDSGWKRQVDLAILQLFGDGEMEELEALWLTGICHNEKNEVMSSQLDIDNMAGVFYMLGAAMALSLITFICEHLFYWQFRHCFMGVCSGKPGMVFSISRGIYSCIHGVAIEERQSVMNSPTATMNNTHSNILRLLRTAKNMANLSGVNGSPQSALDFIRRESSVYDISEHRRSFTHSDCKSYNNPPCEENLFSDYISEVERTFGNLQLKDSNVYQDHYHHHHRPHSIGSASSIDGLYDCDNPPFTTQSRSISKKPLDIGLPSSKHSQLSDLYGKFSFKSDRYSGHDDLIRSDVSDISTHTVTYGNIEGNAAKRRKQQYKDSLKKRPASAKSRREFDEIELAYRRRPPRSPDHKRYFRDKEGLRDFYLDQFRTKENSPHWEHVDLTDIYKERSDDFKRDSVSGGGPCTNRSHIKHGTGDKHGVVSGVPAPWEKNLTNVEWEDRSGGNFCRSCPSKLHNYSTTVTGQNSGRQACIRCEACKKAGNLYDISEDNSLQELDQPAAPVAVTSNASTTKYPQSPTNSKAQKKNRNKLRRQHSYDTFVDLQKEEAALAPRSVSLKDKGRFMDGSPYAHMFEMSAGESTFANNKSSVPTAGHHHHNNPGGGYMLSKSLYPDRVTQNPFIPTFGDDQCLLHGSKSYFFRQPTVAGASKARPDFRALVTNKPVVSALHGAVPARFQKDICIGNQSNPCVPNNKNPRAFNGSSNGHVYEKLSSIESDV
partner: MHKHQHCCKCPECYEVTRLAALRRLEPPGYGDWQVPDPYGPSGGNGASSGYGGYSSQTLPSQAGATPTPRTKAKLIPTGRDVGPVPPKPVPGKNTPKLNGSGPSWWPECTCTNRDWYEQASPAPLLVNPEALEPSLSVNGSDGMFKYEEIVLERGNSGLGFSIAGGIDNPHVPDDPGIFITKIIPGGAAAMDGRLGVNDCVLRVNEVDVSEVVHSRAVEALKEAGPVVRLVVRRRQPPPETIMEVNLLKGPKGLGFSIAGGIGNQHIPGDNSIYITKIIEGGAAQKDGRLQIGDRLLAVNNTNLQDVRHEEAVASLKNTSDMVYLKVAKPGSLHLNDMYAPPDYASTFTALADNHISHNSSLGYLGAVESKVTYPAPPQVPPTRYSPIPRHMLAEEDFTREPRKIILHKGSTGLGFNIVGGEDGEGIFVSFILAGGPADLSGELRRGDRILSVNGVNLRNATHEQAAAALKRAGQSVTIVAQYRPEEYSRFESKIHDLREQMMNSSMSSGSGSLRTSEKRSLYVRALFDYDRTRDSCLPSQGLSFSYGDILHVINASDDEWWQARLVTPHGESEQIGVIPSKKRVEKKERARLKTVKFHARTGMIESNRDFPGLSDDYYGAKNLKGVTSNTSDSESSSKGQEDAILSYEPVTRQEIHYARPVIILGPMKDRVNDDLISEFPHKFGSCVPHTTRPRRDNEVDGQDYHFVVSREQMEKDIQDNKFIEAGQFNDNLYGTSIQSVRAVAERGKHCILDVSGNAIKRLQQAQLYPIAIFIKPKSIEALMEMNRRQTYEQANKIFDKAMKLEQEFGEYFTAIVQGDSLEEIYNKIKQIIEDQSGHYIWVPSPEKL

Variants of: B1
Details: with dlg3_rat Dlg3, Q62936

Variant | effect of a mutation on the interaction
S1482A | disrupting interaction
V1484A | disrupting interaction

Source: IntAct's records for PubMed 11937501
